Thermal melting temperature data for 36 sequences are collected here from the supplement of paper PMC7726561.

Whole data set: some 1,100 sequences, median “thermal melting temperature (Tm) of peptide-HLA complex” near 58, cut for the lowest 2% near 42. The list shows a part of the results.
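Also: cell lysates heated 10 min at 37–73 °C, remaining pHLA pulled down with pan-class I antibody, peptides quantified by DIA-MS versus 37 °C, Tm where half the complex is lost.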

The assay addresses HLA-A*02:01. Briefly: thermal melting temperature (Tm) of peptide-HLA complex; higher = more thermostable pHLA complex. The note with it: C1R-A*02:01.
For the sequence YLSDIPLHDA, the thermal melting temperature stood at 58.2 °C.

Turning to FLNKEITSV, the thermal melting temperature was 59.6 °C.

For VLYPHPPLA, the thermal melting temperature was 60.2 °C.

On to ILIRPLVSV, for which the thermal melting temperature was found to be 61.4 °C.

VLQDIQVML showed a thermal melting temperature of 53.5 °C.

For the sequence ILLTEPGQVKL, the thermal melting temperature is 53.9 °C.

GLADNTVIAKV showed a thermal melting temperature of 62.3 °C.

Sequence VLYEDSLSSQV registered a thermal melting temperature of 50.4 °C.

Sequence ALSDLALHFL returned a thermal melting temperature of 52.6 °C.

Sequence LLDPSTPVHI yielded a thermal melting temperature of 50 °C.

With STFDHPELVKL, the thermal melting temperature came to 46.4 °C.

Sequence FLKNELDNV gave a thermal melting temperature of 59.7 °C.

In turn, TLWYRPPEL came in with a thermal melting temperature of 57.1 °C.

For KILPTLEAV, the thermal melting temperature stood at 60.6 °C.

In the case of ILLEHGADPNL, the thermal melting temperature was 51.4 °C.

With ILFPDIIARA, the thermal melting temperature was determined as 55.7 °C.

Consider ILQEREYRL, for which the thermal melting temperature was 58.7 °C.

Consider VLLGKVYVV, for which the thermal melting temperature was found to be 63.4 °C.

FLNPDEVHAI displayed a thermal melting temperature of 59.9 °C.

In turn, SLTGHISTV came in with a thermal melting temperature of 58.2 °C.

FLDEEVKLI had a thermal melting temperature of 44.5 °C.

In turn, SLQTRLIFL returned a thermal melting temperature of 50.6 °C.

With SIAPRMMSV, the thermal melting temperature came to 48.1 °C.

In turn, NIVERLKEV showed a thermal melting temperature of 59.5 °C.

In turn, FLIEGTISRA yielded a thermal melting temperature of 61.1 °C.

For ILGPKPQGV, the thermal melting temperature was found to be 59.9 °C.

The sequence QLLETLNQL yielded a thermal melting temperature of 41.4 °C.

SLLENLEKI came in with a thermal melting temperature of 63.3 °C.

SLLTHIPTA displayed a thermal melting temperature of 59.5 °C.

In the case of SLAGSLRSV, the thermal melting temperature is 59.7 °C.

For YMLDLQKQL, the thermal melting temperature is 55.3 °C.

In turn, ILENPPEEMKL yielded a thermal melting temperature of 52.1 °C.

For YLMEGSYNKV, the thermal melting temperature is 58 °C.

Take HIADVSHFI: the thermal melting temperature amounted to 55.3 °C.

FLSELTQQL registered a thermal melting temperature of 59.5 °C.

LLNDHIYVV yielded a thermal melting temperature of 62.4 °C.
